From publication PMC7807415

Substrate: CN1C(C(=O)Nc2nccs2)=C(O)c2ccccc2S1(=O)=O
Assay: cells, lysate or membranes named
Details: other: sudoxicam -> glyoxal (bioactivation), recombinant CYP 3A4; pH 7.4

B1: CYP3A4 (Homo sapiens) (protein)
chain: MALIPDLAMETWLLLAVSLVLLYLYGTHSHGLFKKLGIPGPTPLPFLGNILSYHKGFCMFDMECHKKYGKVWGFYDGQQPVLAITDPDMIKTVLVKECYSVFTNRRPFGPVGFMKSAISIAEDEEWKRLRSLLSPTFTSGKLKEMVPIIAQYGDVLVRNLRREAETGKPVTLKDVFGAYSMDVITSTSFGVNIDSLNNPQDPFVENTKKLLRFDFLDPFFLSITVFPFLIPILEVLNICVFPREVTNFLRKSVKRMKESRLEDTQKHRVDFLQLMIDSQNSKETESHKALSDLELVAQSIIFIFAGYETTSSVLSFIMYELATHPDVQQKLQEEIDAVLPNKAPPTYDTVLQMEYLDMVVNETLRLFPIAMRLERVCKKDVEINGMFIPKGVVVMIPSYALHRDPKYWTEPEKFLPERFSKKNKDNIDPYIYTPFGSGPRNCIGMRFALMNMKLALIRVLQNFSFKPCKETQIPLKLSLGGLLQPEKPVVLKVESRDGTVSGA
Protein B1 has a Km of 29 ± 5.8 µM.
